Some of the results follow.

The subject of the experiment is PfAP2-HC AP2 domain (GST-tagged). The experiment is described as follows: gcPBM binding intensity (ln(normalized median fluorescence intensity)); higher = stronger DNA binding. The method in brief:
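Binding of GST-tagged P. falciparum DNA-binding domains, expressed in E. coli and used at about 25 μg on average, was carried out for 1 h in 1× PBS containing 1% milk, 0.2 mg/ml BSA, 0.5% salmon testes DNA and 0.03% Triton X-100. The target was an Agilent 4 × 180k array of primer-extended double-stranded 36-bp intergenic genomic probes plus negative controls, read with Alexa488 anti-GST antibody at 488 nm. Binding intensity is the highest Masliner-normalised natural-log median intensity across replicate spots of either probe orientation.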
In the case of “TATAATCATATTAAGGGTACATATGTGTAAATATTT [XGTACX_site6018]”, the “gcPBM binding intensity (ln)” value came out at 9.75. To “CTTTAAAACCGGTACTGTACACATAGTATTATTATC [XGTACX_site2602]” belongs 9.73. In the case of “ATAATAATAATATAACCAAGGAAATATAATATTTGT [XGTACX_negctrl_site485]”, the “gcPBM binding intensity (ln)” value was 9.7. For “CGATACTTTAGGTGTACACAAATATACATGAATGAG [CACACA_site5189]” the value was 9.79; for “AAAAAAAAGGAAATAACACACATGTATTTATTTATA [CACACA_site4966]”, 9.73. For “AAATTTGCTTTTATTTTACACACTTGCTCCTGTTGT [CACACA_site8276]” the value was 10.6; for “ATAATATTTTAATGCACACACACAAAAAAAAAAAAA [CACACA_site2891]”, 10.1.

As to “AAACAATCTAAAAGTAGTACAATAAAAATATATATA [XGTACX_site5607]”, the “gcPBM binding intensity (ln)” value is 9.69. On to “AAAAAAAAATTATTCACACATATATATATATATATA [CACACA_site5579]”, for which the “gcPBM binding intensity (ln)” value amounted to 9.65. To “GAACCATAAGGAACGACACACAAAGATAAATAAATA [CACACA_site3472]” belongs 9.87. To “AAAAATAAAAAAAGCACACACATATATATATATATA [CACACA_site1885]” belongs 10.5. For “GTGTGAAACATAAACACACACAAAAAGAAAAAATAG [CACACA_site1227]” the value was 10.1; for “TGATATTTACAAATATTAAGATCTTATATTTTTTTT [CACACA_negctrl_site617]”, 9.53. Take “AATATAAATATTAAAACACACATAAAAAGATTATTA [CACACA_site1764]”: the “gcPBM binding intensity (ln)” value was determined as 9.76. To “TATATATATATATTACGTACATAGAACTTTATAAAA [XGTACX_site4485]” belongs 9.58. For AATATTTTATTTTGGGTGCAAAAGAATATTATTTCA the value was 9.42; for “AGCACATATATATTATGTACATATAACTTCCCAGTG [XGTACX_site7095]”, 9.66. To “GTATATATATATATATGTACTAATTAGTAGTTTACG [XGTACX_site6274]” belongs 9.69; to “TATTACATAATACAAAGTACATATATTTTTTTATTT [XGTACX_site7061]”, 9.62; to “ATATTTATACATAAATGTACTTTTATATATTTAATA [XGTACX_site3020]”, 9.65.

In the case of “AATATTATAAATGATACACACTTAAAATACACGCAC [CACACA_site7305]”, the “gcPBM binding intensity (ln)” value stood at 9.98. “TTGTGTAAAGGTATTATTGTATTATTCAAAATAAAA [XGTACX_negctrl_site167]”: the “gcPBM binding intensity (ln)” value was 9.47. For “AATATATAATATATATGTACTTATATATAAAAGATA [XGTACX_site7635]” the value was 9.71; for “ATTTATTAATATCCCAGTACTCATGGGGAATAATGA [XGTACX_site4014]”, 9.4. To “TGATAAATTAAAAATTGTACTATTATAATAATATAT [XGTACX_site6615]” belongs 9.47; to “TTTATATAAATTTATTCACACAACTAATTTTTTAAA [CACACA_site4848]”, 9.23; to “ACAATAAACATATATACACACACAAAAAAAAAAACA [CACACA_site8033]”, 10.7.

With “ATCAAATAGAGACACACACACCTAAACATAAAAGAA [CACACA_site7321]”, the “gcPBM binding intensity (ln)” value amounted to 10.6. With “TGGAGGAACCTCATATGTACGTATAAATATATATTT [XGTACX_site5603]”, the “gcPBM binding intensity (ln)” value stood at 9.64. For “CATATATATTTGTTCACACACACACTAATAAAAAAA [CACACA_site8787]” the value was 10.2. For “TTAAAGCACCCATGCACACACACAAAGGAAAAGAAA [CACACA_site233]” the value was 10.2; for “TTATATGTATGGAGGTTTTTGTATATAGATATATAG [CACACA_negctrl_site177]”, 9.68. To “CATCTTATATAATCATGTACATATAGAGACTTCTTT [XGTACX_site7685]” belongs 9.62. “TTTTTCTTACATGAGTGTACACACTTTTTTTCAGAA [XGTACX_site138]”: the “gcPBM binding intensity (ln)” value turned out to be 9.51. Regarding “GGGGGAATTTACATGGGTACACATGTATTAAAAAAT [XGTACX_site4130]”, the “gcPBM binding intensity (ln)” value turned out to be 9.66. For “ACTATTAAAATGAATACACACAAATATAAAAATATA [CACACA_site4145]” the value was 9.91. For “GGTAGGGATTATACCACACACACATACACATAAATA [CACACA_site3179]” the value was 10.2; for “ACGCTACATAAATACGTGCACATCTTTTTGTGTATA [GTGCAC_site9675]”, 9.72; for “AATATAAACAAACACACACACATATATATATATATT [CACACA_site5592]”, 10.3.

In the case of “ATGTCATATAATAGTACACACATGAAAATATAAATA [CACACA_site3215]”, the “gcPBM binding intensity (ln)” value stood at 10.1. To “AAAAAAAAAAAAAATAGTACAATACCCAAATATAAC [XGTACX_site6684]” belongs 9.82. To “ATAAAAAAAGGACACACACACATATATTTATTTATA [CACACA_site7438]” belongs 10.5. Consider “ATTTTTCTTTTTAATACACACAAAAGTGATACAAAC [CACACA_site3923]”, for which the “gcPBM binding intensity (ln)” value came out at 9.73. For “TGTATTATATATACACAAATATTTATGTGTGTGTTT [XGTACX_negctrl_site475]”, the “gcPBM binding intensity (ln)” value is 10.1. For “TTTTTTTGTATTTGTTTATTTAATGATAAAATTAAA [CACACA_negctrl_site225]” the value was 9.33; for “ATAGTCTTAATGACTACACACCTAACTATGCATGCA [CACACA_site5084]”, 9.7; for ATACAGTTGCATATGGTGCACGAATAATACACCTAT, 9.64. To “AAAAAAAAAAAAAAAACACACAAATCATAAATAAAT [CACACA_site478]” belongs 9.85. For “TGGTAGTATATCATAGAAATCATTGTATAACAAATA [XGTACX_negctrl_site569]”, the “gcPBM binding intensity (ln)” value came to 9.55. To “ACTAAACTAATATGTACACACATATAACATTAATTT [CACACA_site7128]” belongs 9.88; to “TATATATATATATATAGTACATATTTATATATGAAA [XGTACX_site8488]”, 9.64. For “GAATTAAAATAATACGTACACACATGTATAATACAT [CACACA_site1004]” the value was 9.93. To “TTTCGTTCATAAAAAAGTACATATGAGCAAAAGGTA [XGTACX_site8936]” belongs 9.57; to “CACAATACTTTCATCACACATATATATATATATATA [CACACA_site4677]”, 9.7. “TTGTTCTATTTAAGTAGTACATACACACACATATAC [XGTACX_site8484]”: the “gcPBM binding intensity (ln)” value came out at 10.3. For “ACATATATATATTCTACACACTTATAATATAATACA [CACACA_site2461]”, the “gcPBM binding intensity (ln)” value was found to be 9.8. To “AGGTTTCATTTAGCATGTACATATTATAAAAATTGT [XGTACX_site8448]” belongs 9.61. For the sequence “TCTGTTAATATTTATACACACATATATATATATATA [CACACA_site1139]”, the “gcPBM binding intensity (ln)” value worked out at 9.88.

Turning to “AAGATTACTTATATATGTACACATAATACAAATGTC [XGTACX_site520]”, the “gcPBM binding intensity (ln)” value turned out to be 9.66.

Take “AAAAAATTATACCTTTGTACATAAATAAAATATTAT [XGTACX_site418]”: the “gcPBM binding intensity (ln)” value is 9.51. For the sequence “ACCCATTGCTCACGTGCACACATAGAAAAATAATTC [CACACA_site4389]”, the “gcPBM binding intensity (ln)” value came out at 9.87. For “ATAACATAAGGAAATACACACATATATAAGTATATA [CACACA_site778]” the value was 10.2; for “TATGTATATATTTACGCATGCTACTCTATTTTGAGA [TGCATGCA_site990]”, 9.91. For “ATAGTATCTGGTAGCTGTACGAGTCGTAGAGTGTAG [XGTACX_site2030]” the value was 9.81; for “TGGGAAGGGTGGGAAACTTTATCAAAAACTTATTAC [GTGCAC_negctrl_site16]”, 9.77; for “TATGTATTTTTTAAGTGTACCTATATATATATATAT [XGTACX_site7934]”, 9.88. To “AGAAAGGTGGTATTAAAAGAATAACCTATGAATAAA [GTGCAC_negctrl_site325]” belongs 9.4; to “TATAATAATAATTATTGTACGATTAGGTTAATTCAT [XGTACX_site1984]”, 9.54.

As for “TTTTTCATAAAAAAATAAAAAAAATTAACATAGAAA [XGTACX_negctrl_site11]”, the “gcPBM binding intensity (ln)” value was 9.38.

As for “ATAATATATACTATATGTACATATCTTTTCCTCTTT [XGTACX_site5553]”, the “gcPBM binding intensity (ln)” value came out at 10.1. For “TTTTAGAGTGGTATATATTAATTTTTAATAAAAAAA [CACACA_negctrl_site1652]” the value was 9.11; for “AATAAAAGAAGACAGAGTACACAGGTTGTATTTTCC [XGTACX_site7208]”, 9.83. To “TGTGCATAAATTTATGCACACATAAAAAAAAAAAAA [CACACA_site8954]” belongs 9.91. To “TTACACATATTTTTAATTATTCTGAATTCAAAAAAA [CACACA_negctrl_site1706]” belongs 9.17; to “ATAATCATAAAATAAACACACATATATAAATATATT [CACACA_site276]”, 9.78; to “GTAATATTAAAATATACACACATAGAATATATATAT [CACACA_site4391]”, 9.87. “TTTTTTATATTGTGATGTACAAATTTTAAAATGTAG [XGTACX_site1875]”: the “gcPBM binding intensity (ln)” value amounted to 9.39. Turning to “AAATTCGTTATAAAAACATGCAACGATCAACATTGT [TGCATGCA_site844]”, the “gcPBM binding intensity (ln)” value came out at 9.48. For “TTACTCTTTATATAATGTACATATATATATATATTA [XGTACX_site2624]” the value was 9.82; for “GTGTGGAGTTACAAAGAGGAGAACCTCACAGTAATC [CACACA_negctrl_site527]”, 9.78; for “TTATGTGATAAAAAAAAAATACAACAAAGTTAAATA [GTGCAC_negctrl_site36]”, 9.58. To “ATATATATATATATAATACACACTTATGAAATGTCT [CACACA_site1827]” belongs 9.82; to “TATAAAGGTTGGTACTGTACAATATAAGAAAAAAAA [XGTACX_site435]”, 9.56. For “AAATAGTTCATAAAAAGTACAAAATTTTTATCCGTA [XGTACX_site2796]” the value was 9.63.

On to “ATCATTCATTTAACAACACACAACATATTTATCATA [CACACA_site1041]”, for which the “gcPBM binding intensity (ln)” value was 9.83. Regarding “TATATATTATATAAGAGTACATATAATTATAGTTTT [XGTACX_site5039]”, the “gcPBM binding intensity (ln)” value is 9.46. For “TGAAAAAAGAAAAATACACACATATAACATAATATA [CACACA_site7126]” the value was 10.1; for “AATCTATATTAATACACACACACATATATTTATATA [CACACA_site7732]”, 10.4.

For the origin of these results see the supplement of paper PMC11417369.
